# Data reported in PubChem BioAssay AID1346428 (National Center for Advancing Translational Sciences (NCATS), 2018).
# Several values for one entry are separate records, joined by “and”; a condition that tells them apart may be missing. Equal entries are not always repeated. In all, about 48,000 compounds went through this assay and about 1,200 (2.5%) were called active. About 2% were inconclusive and are not listed.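 Rule for the calls: active = activation of at least 60% and not above a set upper limit (about 1 call in 100 departs from these limits); inconclusive = activation of 40% to 60%, or above that upper limit; inactive = activation under 40%.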 This is one part of the list. A structure can be active in one record and inactive in another.
# Target: Probable G-protein coupled receptor 32 (Homo sapiens) (UniProt O75388)
# Assay: qHTS for Agonists of Human Resolvin D1 Receptor DRV1; note: 0% is about no effect
# Conditions: CHO-K1 GPR32 beta-arrestin PathHunter luminescence, 90 min; at 76.9 µM; stronger effect = higher value; zero percent set by DMSO-only wells
# Procedure, shortened: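 Engineered CHO-K1 line co-expressing GPR32-ProLink and EA-beta-arrestin. Compound treatment lasted 90 min at 37 °C. Luminescence was recorded after 1 h with substrate at ambient temperature, relative to DMSO basal wells.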
# UniProt O75388, sequence (O75388 whole entry, looked up): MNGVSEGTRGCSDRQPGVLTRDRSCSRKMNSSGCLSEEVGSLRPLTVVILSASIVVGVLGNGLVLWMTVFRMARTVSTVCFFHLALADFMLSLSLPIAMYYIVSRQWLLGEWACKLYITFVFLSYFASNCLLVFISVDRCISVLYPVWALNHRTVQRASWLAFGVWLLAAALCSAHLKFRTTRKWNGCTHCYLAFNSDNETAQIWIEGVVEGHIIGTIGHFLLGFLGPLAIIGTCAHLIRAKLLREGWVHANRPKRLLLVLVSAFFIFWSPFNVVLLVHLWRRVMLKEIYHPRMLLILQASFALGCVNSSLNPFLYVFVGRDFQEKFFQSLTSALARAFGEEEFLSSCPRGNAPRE
row,SMILES,activation
1,Cc1cccc(N(C)S(=O)(=O)c2nnc(NC(=O)C(C)Oc3ccccc3)s2)c1 (centres undefined),inactive: 0.769%
2,COC(=O)c1sccc1S(=O)(=O)N1CCN(c2cccc(C)c2)C(C)C1 (centres undefined),inactive: 10.1%
3,COc1ccc(OC)c(CCNC(=O)c2ccc3c(c2)N(Cc2ccccc2)CCS3)c1,inactive: -22.6%
4,CCOC(=O)c1cccc(NC(=O)C2COc3ccc(OC)cc3C2)c1 (centres undefined),inactive: -22.7%
5,Cc1ccc(CCNC(=O)C2CC(=O)N(CCc3ccc(C)cc3)C2)cc1 (centres undefined),inactive: -8.83%
6,O=C(NCc1ccccc1)C1CCN(c2ncnc3c2nc2n3CCCCC2)CC1,inactive: 3.74%
7,Cc1ccc(-n2cc(-c3ccccc3)c3c(N4CCC(C)CC4)ncnc32)cc1Cl,inactive: -2.79%
8,COc1ccc(C)cc1NC(=O)CSc1nc(=O)n(Cc2ccco2)c2c1CCC2,inactive: -0.0524%
9,O=C(NCc1ccc(Cl)cc1)c1ccc2c(c1)nnn2C1CCCC1,inactive: 14.7%
10,CCCCc1ccc(NC(=O)Cn2cnc3c(oc4ccccc43)c2=O)cc1,inactive: -0.697%
11,Cc1nc2nc(NCc3ccccc3Cl)[nH]n2c(=O)c1Cc1ccccc1,inactive: -2.86%
12,O=C(Nc1ccccc1OCc1cc(=O)n2ccccc2n1)Nc1ccccc1C(F)(F)F,inactive: -15.6%
13,CCOC(=O)c1cnc2c(C)cc(C)cc2c1NCCN1CCOCC1,inactive: 20.5%
14,CCCSC1=NC2(CCN(C(=O)NC3CCCCC3)CC2)N=C1c1ccc(C)cc1,inactive: 2.01%
15,Cc1ccccc1NC(=O)CSc1nc2c(oc3ccccc32)c(=O)n1Cc1ccco1,inactive: -11.2%
16,Cc1ccc(C)c(OCc2nc3ccccc3n2C)c1,inactive: -6.85%
17,CCOc1ccc(-c2cc3c(=O)n(Cc4nc(-c5ccc(OCC)c(OC)c5)oc4C)ccn3n2)cc1Cl,inactive: -4.14%
18,CCCCn1cc2c(c1-c1ccc(Br)cc1)c(=O)n(C)c(=O)n2C,inactive: -27.2%
19,Cc1ccc2nc(CSc3nnc(NC(=O)C(C)C)s3)cc(=O)n2c1,inactive: -0.729%
20,Cc1cccc2c(=O)cc(CSc3ccccc3NC(=O)c3cccc(Cl)c3)[nH]c12,inactive: 7.61%
21,CSc1ccc(C2c3c(-c4ccccc4O)n[nH]c3C(=O)N2Cc2ccncc2)cc1 (centres undefined),inactive: -22%

row,SMILES,activation
1,COc1ccc(NCc2cc3ccc(OC)cc3n(CC(=O)Nc3ccc(C)c(C)c3)c2=O)cc1,inactive: -41.6%
2,Cc1cccc(C(=O)NCCc2nc3ccccc3n2CCC(C)C)c1,inactive: 47.2%
3,Cc1cccc(OCC(=O)Nc2c(C(=O)Nc3ccc(F)cc3)oc3ccccc23)c1,inactive: -12.4%
4,Cc1cccc(N2C(=O)CSC23C(=O)N(C)c2ccccc23)c1 (centres undefined),inactive: -7.01%
5,COc1cc(NC(=O)NCCc2c(C)nn(C)c2C)cc(OC)c1OC,inactive: -10.8%
6,CCCN1CCN(c2nnc(-n3cccc3C(=O)Nc3ccccc3C(F)(F)F)s2)CC1,inactive: -18.9%
7,CCc1ccc(-n2nc(C)c3c(C)cc(=O)n(CC(=O)Nc4cc(Cl)ccc4OC)c32)cc1,inactive: -0.615%
8,CCOc1ccc(OCC)c(NC(=O)c2cnn(-c3ccc(F)cc3)c2-n2cccc2)c1,inactive: -5.4%
9,O=c1c2sc3ccccc3c2n(Cc2cccc(Cl)c2)c(=O)n1Cc1ccccc1,inactive: -1.56%
10,COc1ccc(S(=O)(=O)Nc2cccc(-c3ccc(N4CCCCCC4)nn3)c2)cc1OC,inactive: -4.88%
11,CC(C)(C)OC(=O)N1CCC(c2c(C(=O)N3CCN(c4cccc(Cl)c4)CC3)cnn2-c2cccc(Cl)c2)CC1,inactive: -20.8%
12,CC(=O)Nc1ccc(S(=O)(=O)NCCc2csc3nc(-c4ccc(Cl)cc4)nn23)cc1,inactive: 34.6%
13,CCc1ccc(NC(=O)C2CCCN(S(=O)(=O)c3ccc4[nH]c(=O)ccc4c3)C2)cc1 (centres undefined),inactive: -7.45%
14,COc1cccc(C(c2sc3nc(-c4ccco4)nn3c2O)N2CCC(C)CC2)c1 (centres undefined),inactive: 3.87%
15,O=C(CSc1ccnc(=O)[nH]1)NCc1ccc(F)cc1,inactive: -14.8%
16,CCCn1c(=O)c2c(ncn2C)n(CCC)c1=O,inactive: 4.89%
17,CCC1CN(C(=O)NCc2ccc(F)cc2)c2cc(C)ccc2O1 (centres undefined),inactive: -33.8%
18,CCOC(=O)C1CCN(C(=O)Cn2nc(C)n3c(cc4c(OC)cccc43)c2=O)CC1,inactive: -3%
19,CCOc1ccc2c(c1)c(=O)c(C(=O)c1ccc(CC)cc1)cn2CC(=O)Nc1ccc2c(c1)OCCO2,inactive: 24.1%
20,COc1cc(C2C=C(C(=O)O)Nc3ncnn32)ccc1O (centres undefined),inactive: 3.02%
21,COc1ccc(Cl)cc1NC(=O)Cn1c(=O)n2nc(-c3ccccc3)nc2c2ccccc21,inactive: -6.46%

row,SMILES,activation
1,COc1cccc(NC(=O)Cn2c(=O)n(CCC(=O)NCc3ccccc3OC)c(=O)c3ccccc32)c1,inactive: 0.337%
2,Cc1ccc(NC(=O)Cn2cc3c(n2)CCCC3)cc1Cl,inactive: -8.38%
3,COc1ccc(C)c2sc(N(Cc3cccnc3)C(=O)c3cccs3)nc12,inactive: -22.4%
4,CCN1CCc2c(sc(-n3cccc3)c2C(C)NC(=O)Nc2ccc(C(=O)OC)cc2)C1 (centres undefined),inactive: -13.9%
5,O=C(Nc1cccc(F)c1)c1cnc2sc(N3CCCC3)nn2c1=O,inactive: 0.837%
6,COc1ccc(-c2csc(-c3c(N)c(C(=O)c4ccc(OC)c(OC)c4)n4ccccc34)n2)cc1,inactive: 4.95%
7,COc1ccc(CNS(=O)(=O)c2ccc(-c3cc(C(F)(F)F)on3)s2)cc1OC,inactive: -1.24%
8,COc1ccc(CNC(=O)c2nn(C)c3c2CSc2ccccc2-3)cc1,inactive: -15.1%
9,COC(=O)c1c(C)oc2ccc(N(C(=O)c3ccncc3)S(=O)(=O)c3ccc(Br)cc3)cc12,inactive: 11.3%
10,COc1ccc(NC(=O)c2ccco2)cc1NC(=O)c1ccccc1[N+](=O)[O-],inactive: -31.4%
11,Cc1ccc(NC(=O)Cn2c(=O)n(Cc3ccccc3)c(=O)c3c(C)c(C(=O)N(C)C)sc32)c(C)c1,inactive: -8.33%
12,COc1ccc(N(C)S(=O)(=O)c2ccc3c(c2)CCN3C(=O)CCC(=O)O)cc1,inactive: -1.09%
13,CCOC(=O)c1ccc(N2C(=O)c3n[nH]c(-c4ccco4)c3C2c2ccccc2OC)cc1 (centres undefined),inactive: 33.8%
14,CCN1CCN(C(=O)N[C@@H](C(=O)N[C@@H]2C(=O)N3C(C(=O)O)=C(CSc4nnnn4C)CS[C@H]23)c2ccc(O)cc2)C(=O)C1=O,inactive: 37.8%
15,CCc1cccc(C)c1Nc1nn2c(=O)c3ccccc3nc2s1,inactive: -24.4%
16,O=C(NCCO[N+](=O)[O-])c1cccnc1,inactive: 11.4%
17,Cc1cccc(OC(=O)CSc2nnc(-c3cccs3)o2)c1C,inactive: -3.45%
18,Cc1ccc(-n2ncc(C(=O)N3CCN(c4ccccc4F)CC3)c2C2CCN(C(=O)OC(C)(C)C)CC2)cc1C,inactive: -12.9%
19,CSc1ncc(Cl)c(C(=O)Nc2c(C(=O)c3ccc(Cl)cc3)oc3ccccc23)n1,inactive: -2.02%
20,CCOC(=O)c1c(S(=O)(=O)N2CCCC(C(=O)Nc3cccc(CC)c3)C2)c(C)n(CC)c1C (centres undefined),inactive: -0.915%
21,CCOC(=O)c1c(C)[nH]c(C)c1S(=O)(=O)NCC(=O)Nc1cccc(Cl)c1,inactive: 7.73%

row,SMILES,activation
1,Cc1c(NC(=O)Cc2ccc(Cl)cc2)cccc1-c1nc2cccnc2s1,inactive: -9.35%
2,CCOc1ccc(CNC(=O)c2ccc(NC(=O)N3CCCCc4ccccc43)cc2)cc1,inactive: -9.04%
3,Cc1c(CNC2CCCCCC2)c(C(=O)O)c(C)n1Cc1cccc(Cl)c1,inactive: -17.4%
4,Cc1cccc(CNC(=O)Cn2nc(C)c3nn(-c4ccc(Cl)cc4)c(C)c3c2=O)c1,inactive: -11.3%
5,Cc1cc(C)cc(NC(=O)NCc2c(-n3cccc3)sc3c2CCCC3)c1,inactive: -7.72%
6,O=C(CSc1nc(Nc2ccccc2)c2ccccc2n1)c1ccc(Cl)cc1,active: 108%
7,Cc1ccc(Cl)c(Nc2ccccc2C(=O)O)c1Cl,active: 103% and inactive: 20%
8,Cc1ccccc1Nc1c(-c2c[nH]c3ccccc23)nc2ccc(Cl)cn12,inactive: 10.9%
9,COC(=O)c1scc(-c2ccc(C)cc2)c1S(=O)(=O)Nc1cc(C)c(Cl)cc1OC,inactive: -17.9%
10,Clc1cccc(CNCCCSc2nnnn2-c2ccccc2)c1,inactive: -14.4%
11,CCCCOC(=O)c1ccc(NC(=O)c2ccc3c(c2)CCN3S(C)(=O)=O)cc1,inactive: 1.85%
12,Cc1cccc(C(c2sc3nc(-c4ccco4)nn3c2O)N2CCOCC2)c1 (centres undefined),inactive: 31.4%
13,CC(=O)N1CCN(c2csc3ccc(Cl)cc3c2=O)CC1,inactive: -54.1%
14,Cc1ccc(NS(=O)(=O)c2ccc3c(c2)n(C)c(=O)n3C)c(C)c1,inactive: 6.25%
15,Cc1cccc(N2CCN(C(=O)CCS(=O)(=O)c3ccc4c(c3)CC(=O)N4C)CC2C)c1 (centres undefined),inactive: -1.25%
16,Fc1cccc(CN2CCc3nc(Nc4ccc5c(c4)OCCO5)ncc3C2)c1F,inactive: -2.38%
17,Cc1ccccc1S(=O)Cc1ccc(C(=O)NCc2ccccc2Cl)o1 (centres undefined),inactive: 12.7%
18,Cc1ccc(CSC2=NC(C)(C)Nc3ccccc32)c(C)c1,inactive: 47%
19,COc1ccc(-c2csc3ncnc(Nc4ccccc4)c23)cc1,inactive: 12.6%
20,O=C(Cn1cc(C(=O)c2ccco2)c2ccccc21)Nc1ccccc1C(F)(F)F,inactive: 34.8%
21,CCNc1nc2c(c(=O)n(C)c(=O)n2C)n1Cc1ccc(F)cc1,inactive: 27.4%
